± gives the uncertainty stated by the source. The sequences are guide strands of siRNAs; only the seed at positions 2 to 7 varies.
Tests used:
3LL = assay: cell viability relative to siNT1 control; higher = less toxic; conditions: concentration: 10 nM; 96 h; Mus musculus;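 further: Luminescence-based viability of cells reverse transfected in 384-well plates with lipid-complexed siRNAs built on a non-toxic 19mer backbone whose passenger strand carries 2′-O-methyl groups at positions 1 and 2, triplicates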
H460 = assay: cell viability relative to lipid-only control; HeyA8 human ovarian and H460 human lung cancer; M565 mouse liver and 3LL mouse lung cancer; siNT1 is a non-toxic control siRNA; higher = less toxic; conditions: concentration: 10 nM; 96 h; Homo sapiens
Description: (§1)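 Arrayed screen of 4096 siRNA duplexes, each carrying one of all possible 6mer seeds at guide-strand positions 2-7 in a fixed neutral 19mer scaffold (constant flanks: U at position 1, then ACAUGUAAACCA, plus a 3' AA overhang). The passenger strand is 2'-O-methylated at positions 1-2 so only the guide strand loads into RISC. Duplexes were reverse-transfected at 10 nM with RNAiMAX in triplicate in 384-well plates; viability was read by CellTiter-Glo ATP content 96 h after transfection. Values are % viability normalised to lipid-only wells (HeyA8, H460, M565) or to siNT1 (3LL).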

HeyA8 = assay: as above; conditions: concentration: 10 nM; 96 h; Homo sapiens
Description: as §1

M565 = assay: as above; conditions: concentration: 10 nM; 96 h; Mus musculus
Description: as §1
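Wherever cell viability relative to lipid-only control is given: reverse lipid transfection in 384-well plates, in triplicate, of duplexes on a non-toxic 19mer backbone with passenger strand 2′-O-methylated at positions 1 and 2, luminescence viability read-out.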

Sequence	cell viability (3LL) [%]	cell viability (H460) [%]	cell viability (HeyA8) [%]	cell viability (M565) [%]
UCUGCCGACAUGUAAACCAAA	99.4 ± 13	73.9 ± 5.3	94.3 ± 2.5	43.7 ± 6.6
UCUGCCUACAUGUAAACCAAA	54.6 ± 18	41.7 ± 2	50.8 ± 7.3	12.7 ± 2.4
UCUGCGAACAUGUAAACCAAA	100 ± 12	64.7 ± 2	92.7 ± 4.9	85.4 ± 18
UCUGCGCACAUGUAAACCAAA	69.6 ± 7.7	79.4 ± 3.8	68.5 ± 2.8	44.4 ± 8
UCUGCGGACAUGUAAACCAAA	97 ± 12	61.1 ± 8	57.7 ± 2.3	40.7 ± 10
UCUGCGUACAUGUAAACCAAA	96.9 ± 20	61.3 ± 3.5	81.5 ± 4.2	39.8 ± 4.8
UCUGCUAACAUGUAAACCAAA	91.2 ± 12	68.1 ± 12	89.9 ± 2.1	67 ± 18
UCUGCUCACAUGUAAACCAAA	94.4 ± 9	55 ± 4.1	63.9 ± 2.7	45.3 ± 8.2
UCUGCUGACAUGUAAACCAAA	90.6 ± 13	81.5 ± 23	66.5 ± 4.3	36.8 ± 7.3
UCUGCUUACAUGUAAACCAAA	99.5 ± 10	68.3 ± 4.7	94.4 ± 8.2	87 ± 18
UCUGGAAACAUGUAAACCAAA	96.2 ± 12	72.5 ± 5.6	90.1 ± 3.6	62.3 ± 9.7
UCUGGACACAUGUAAACCAAA	42 ± 5.8	41.4 ± 3.4	61.6 ± 5.2	8.06 ± 1.3
UCUGGAGACAUGUAAACCAAA	97.1 ± 14	65.4 ± 5.8	71.6 ± 7.5	70.3 ± 17
UCUGGAUACAUGUAAACCAAA	90.2 ± 11	61.2 ± 3.7	52.6 ± 1.1	17.1 ± 1.4
UCUGGCAACAUGUAAACCAAA	97.8 ± 17	73.9 ± 7.6	82.9 ± 5.6	35.9 ± 7.6
UCUGGCCACAUGUAAACCAAA	72.9 ± 8.3	50.4 ± 0.52	55.2 ± 2.1	12.9 ± 2.6
UCUGGCGACAUGUAAACCAAA	97.8 ± 11	75.9 ± 9.7	94.6 ± 12	41.9 ± 9.2
UCUGGCUACAUGUAAACCAAA	73.2 ± 5.7	31.4 ± 2.4	63.9 ± 4	14.6 ± 1.8
UCUGGGAACAUGUAAACCAAA	61.7 ± 21	22.8 ± 2.2	6.07 ± 0.83	31.2 ± 7
UCUGGGCACAUGUAAACCAAA	22.5 ± 5.6	16.9 ± 2.6	2.52 ± 0.071	11.3 ± 1.5
UCUGGGGACAUGUAAACCAAA	33.8 ± 1.2	21.8 ± 4.6	10.9 ± 1.5	25.6 ± 0.74
UCUGGGUACAUGUAAACCAAA	35.6 ± 6.6	26.9 ± 3.5	52.1 ± 4.8	85.1 ± 17

Sequence	cell viability (3LL) [%]	cell viability (H460) [%]	cell viability (HeyA8) [%]	cell viability (M565) [%]
UCUGGUAACAUGUAAACCAAA	98.9 ± 17	82.2 ± 4.7	90.2 ± 6.9	81.8 ± 18
UCUGGUCACAUGUAAACCAAA	99 ± 16	31.9 ± 4.2	65.2 ± 3.8	61.7 ± 10
UCUGGUGACAUGUAAACCAAA	98 ± 20	79 ± 2.5	84.7 ± 4	60.3 ± 9.5
UCUGGUUACAUGUAAACCAAA	98.3 ± 16	86.5 ± 9.8	85.9 ± 3	59.8 ± 8.2
UCUGUAAACAUGUAAACCAAA	103 ± 14	62.39 ± 0.59	91.2 ± 4.7	67 ± 6.9
UCUGUACACAUGUAAACCAAA	90.4 ± 7	52.6 ± 2.9	54.3 ± 5.7	63.1 ± 13
UCUGUAGACAUGUAAACCAAA	92.3 ± 14	63 ± 7.3	78.3 ± 8.3	59.9 ± 12
UCUGUAUACAUGUAAACCAAA	90.3 ± 10	63.8 ± 10	84.5 ± 7.7	44.1 ± 8.2
UCUGUCAACAUGUAAACCAAA	94.9 ± 17	58.7 ± 4.4	82.8 ± 2.1	59.5 ± 13
UCUGUCCACAUGUAAACCAAA	74.5 ± 6	34.7 ± 4.6	57.1 ± 4.8	5.48 ± 1.1
UCUGUCGACAUGUAAACCAAA	103 ± 17	49.5 ± 2.7	78.5 ± 7	68.9 ± 3.6
UCUGUCUACAUGUAAACCAAA	95.8 ± 14	52.3 ± 4	71.1 ± 3	43 ± 17
UCUGUGAACAUGUAAACCAAA	103 ± 17	41.8 ± 4.2	73.3 ± 10	42.8 ± 9.7
UCUGUGCACAUGUAAACCAAA	81 ± 9.4	38.8 ± 8.4	67.7 ± 3.1	32.2 ± 7.6
UCUGUGGACAUGUAAACCAAA	82 ± 12	37.2 ± 2.5	62.1 ± 5.3	26.2 ± 4.8
UCUGUGUACAUGUAAACCAAA	74.4 ± 12	48.6 ± 7	62 ± 3.6	12.7 ± 4.9
UCUGUUAACAUGUAAACCAAA	97.3 ± 14	54.9 ± 5.7	77.5 ± 0.79	58.6 ± 10
UCUGUUCACAUGUAAACCAAA	98 ± 12	56.2 ± 9.2	62.5 ± 4.8	34.6 ± 4.2
UCUGUUGACAUGUAAACCAAA	100 ± 22	51.2 ± 3.8	83.9 ± 3.8	52.2 ± 4.5
UCUGUUUACAUGUAAACCAAA	97.7 ± 14	76.2 ± 2.4	73.9 ± 2	62.1 ± 23
UCUUAAAACAUGUAAACCAAA	101 ± 12	76.1 ± 13	87.4 ± 8.7	87.1 ± 17
UCUUAACACAUGUAAACCAAA	89.2 ± 13	72.7 ± 4.2	91.4 ± 12	84.2 ± 22

Sequence	cell viability (3LL) [%]	cell viability (H460) [%]	cell viability (HeyA8) [%]	cell viability (M565) [%]
UCUUAAGACAUGUAAACCAAA	92.2 ± 15	68.1 ± 6.8	86.3 ± 4.8	65.3 ± 12
UCUUAAUACAUGUAAACCAAA	96.8 ± 15	61.9 ± 13	84.3 ± 12	79.7 ± 14
UCUUACAACAUGUAAACCAAA	94.6 ± 17	67.8 ± 4.9	85.4 ± 5.6	70.7 ± 12
UCUUACCACAUGUAAACCAAA	89.8 ± 16	48.9 ± 1.7	37.6 ± 3.8	38.4 ± 9.1
UCUUACGACAUGUAAACCAAA	87.8 ± 9.3	64.1 ± 5.6	81.9 ± 7.6	75.4 ± 10
UCUUACUACAUGUAAACCAAA	97.6 ± 15	60.8 ± 4.3	86.2 ± 9.9	74.3 ± 14
UCUUAGAACAUGUAAACCAAA	93.6 ± 15	46.6 ± 0.54	89.1 ± 12	65.5 ± 9.8
UCUUAGCACAUGUAAACCAAA	79.9 ± 17	59.5 ± 1.7	50.3 ± 9.6	47 ± 10
UCUUAGGACAUGUAAACCAAA	89.2 ± 13	51.3 ± 1.5	80.1 ± 9.1	60.6 ± 6.5
UCUUAGUACAUGUAAACCAAA	90.4 ± 15	62 ± 3.9	71.8 ± 7.2	52.9 ± 7.5
UCUUAUAACAUGUAAACCAAA	97.6 ± 16	59 ± 9.2	87.3 ± 7.2	76.2 ± 6.5
UCUUAUCACAUGUAAACCAAA	92.7 ± 18	66.4 ± 5.4	76.9 ± 18	63.7 ± 16
UCUUAUGACAUGUAAACCAAA	91.6 ± 14	55.7 ± 2	84.4 ± 8.1	78 ± 8.7
UCUUAUUACAUGUAAACCAAA	89 ± 18	78.7 ± 7	85.1 ± 9.6	77.2 ± 11
UCUUCAAACAUGUAAACCAAA	93.6 ± 15	68.1 ± 12	84.9 ± 8.2	78.1 ± 15
UCUUCACACAUGUAAACCAAA	92.9 ± 13	52.3 ± 8.2	92.7 ± 6.9	61.3 ± 3.5
UCUUCAGACAUGUAAACCAAA	90.3 ± 12	61 ± 2.8	86.6 ± 10	77.8 ± 10
UCUUCAUACAUGUAAACCAAA	94 ± 10	59.4 ± 3.2	80.7 ± 8.9	82.2 ± 4.5
UCUUCCAACAUGUAAACCAAA	89.5 ± 8.8	68.4 ± 11	80.1 ± 11	82.1 ± 11
UCUUCCCACAUGUAAACCAAA	89.9 ± 15	52.2 ± 2.4	42.6 ± 4	44.7 ± 8.9
UCUUCCGACAUGUAAACCAAA	75 ± 18	64.7 ± 12	81.4 ± 6.2	60.9 ± 14
UCUUCCUACAUGUAAACCAAA	81.4 ± 4.1	52.6 ± 1.8	65.1 ± 0.98	68.2 ± 7.7

Sequence	cell viability (3LL) [%]	cell viability (H460) [%]	cell viability (HeyA8) [%]	cell viability (M565) [%]
UCUUCGAACAUGUAAACCAAA	93.7 ± 16	79.5 ± 12	83.5 ± 3.3	68.2 ± 23
UCUUCGCACAUGUAAACCAAA	87.6 ± 15	63 ± 2.6	57 ± 5	49.5 ± 13
UCUUCGGACAUGUAAACCAAA	91.4 ± 22	78.4 ± 11	70.9 ± 5.6	77 ± 8.5
UCUUCGUACAUGUAAACCAAA	104 ± 12	75.4 ± 7.9	74.7 ± 6.1	63.4 ± 5
UCUUCUAACAUGUAAACCAAA	98.4 ± 19	64.8 ± 6.4	95.4 ± 6.6	80.1 ± 20
UCUUCUCACAUGUAAACCAAA	90.2 ± 12	63.8 ± 4.3	52.1 ± 4	47 ± 12
UCUUCUGACAUGUAAACCAAA	92.6 ± 13	67.8 ± 3	88.6 ± 6.5	63.8 ± 13
UCUUCUUACAUGUAAACCAAA	89.1 ± 8.7	56.2 ± 1.4	88.4 ± 2.6	82.4 ± 15
UCUUGAAACAUGUAAACCAAA	89.7 ± 14	86.9 ± 8.5	81.4 ± 5.7	79 ± 7.7
UCUUGACACAUGUAAACCAAA	83.3 ± 17	43.3 ± 5.5	62.2 ± 7.5	48.6 ± 11
UCUUGAGACAUGUAAACCAAA	93.2 ± 15	57.8 ± 7.7	79.2 ± 8.1	55.5 ± 5.8
UCUUGAUACAUGUAAACCAAA	91.8 ± 15	64.1 ± 3.3	80.5 ± 0.96	64.4 ± 13
UCUUGCAACAUGUAAACCAAA	94.9 ± 13	68.1 ± 9.5	81.2 ± 5.6	68.7 ± 12
UCUUGCCACAUGUAAACCAAA	39.8 ± 9.2	19.2 ± 2.1	15.8 ± 0.3	16.4 ± 4.5
UCUUGCGACAUGUAAACCAAA	97.3 ± 20	58.9 ± 8.8	66 ± 13	70.1 ± 16
UCUUGCUACAUGUAAACCAAA	77.6 ± 15	46.9 ± 2.9	53.8 ± 3.5	71.9 ± 5
UCUUGGAACAUGUAAACCAAA	96.3 ± 22	20.9 ± 3.3	10.1 ± 7.6	76.2 ± 23
UCUUGGCACAUGUAAACCAAA	27.5 ± 3.1	44.4 ± 3	8.41 ± 1.3	9.69 ± 2
UCUUGGGACAUGUAAACCAAA	95.8 ± 9.4	24.3 ± 5.2	9.26 ± 1.2	49.5 ± 6.7
UCUUGGUACAUGUAAACCAAA	91.2 ± 12	47.4 ± 1.1	48.7 ± 3.2	24.1 ± 4.7
UCUUGUAACAUGUAAACCAAA	98.8 ± 16	81.7 ± 20	88.6 ± 8.1	74.3 ± 9.2
UCUUGUCACAUGUAAACCAAA	97.3 ± 14	60.2 ± 8.4	75.8 ± 2.1	83.3 ± 14
